# Measured values: paper PMC12069442
# Substitutions are numbered along the chain they refer to. Numbers in names are those of the source.
# B1: CYP3A4.32 (Homo sapiens; I335T) (protein)
# chain: MALIPDLAMETWLLLAVSLVLLYLYGTHSHGLFKKLGIPGPTPLPFLGNILSYHKGFCMFDMECHKKYGKVWGFYDGQQPVLAITDPDMIKTVLVKECYSVFTNRRPFGPVGFMKSAISIAEDEEWKRLRSLLSPTFTSGKLKEMVPIIAQYGDVLVRNLRREAETGKPVTLKDVFGAYSMDVITSTSFGVNIDSLNNPQDPFVENTKKLLRFDFLDPFFLSITVFPFLIPILEVLNICVFPREVTNFLRKSVKRMKESRLEDTQKHRVDFLQLMIDSQNSKETESHKALSDLELVAQSIIFIFAGYETTSSVLSFIMYELATHPDVQQKLQEETDAVLPNKAPPTYDTVLQMEYLDMVVNETLRLFPIAMRLERVCKKDVEINGMFIPKGVVVMIPSYALHRDPKYWTEPEKFLPERFSKKNKDNIDPYIYTPFGSGPRNCIGMRFALMNMKLALIRVLQNFSFKPCKETQIPLKLSLGGLLQPEKPVVLKVESRDGTVSGA
# B2: CYP3A4.10 (Homo sapiens; D174H) (protein)
# chain: B1 chain with D174H, T335I
# B3: CYP3A4.34 (Homo sapiens; I427V) (protein)
# chain: B1 chain with T335I, I427V
# B4: CYP3A4.5 (Homo sapiens; P218R) (protein)
# chain: B1 chain with P218R, T335I
# B5: CYP3A4.33 (Homo sapiens; A370S) (protein)
# chain: B1 chain with T335I, A370S
# B6: CYP3A4.8 (Homo sapiens; R130Q) (protein)
# chain: B1 chain with R130Q, T335I
# B7: CYP3A4.12 (Homo sapiens; L373F) (protein)
# chain: B1 chain with T335I, L373F
# B8: CYP3A4.1 (Homo sapiens) (protein)
# chain: B1 chain with T335I
# B9: CYP3A4.3 (Homo sapiens; M445T) (protein)
# chain: B1 chain with T335I, M445T
# B10: CYP3A4.9 (Homo sapiens; V170I) (protein)
# chain: B1 chain with V170I, T335I
# Substrate: O=C1Cc2cc(CCN3CCN(c4nsc5ccccc45)CC3)c(Cl)cc2N1
# Assay: not read
# Conditions: 20 min
# [1] = other: CYP3A4.32, ziprasidone 0.1–25 μM
# [2] = other: CYP3A4.10, ziprasidone 0.1–25 μM
# [3] = other: CYP3A4.34, ziprasidone 0.1–25 μM
# [4] = other: CYP3A4.5, ziprasidone 0.1–25 μM
# [5] = other: CYP3A4.33, ziprasidone 0.1–25 μM
# [6] = other: CYP3A4.8, ziprasidone 0.1–25 μM
# [7] = other: CYP3A4.12, ziprasidone 0.1–25 μM
# [8] = other: CYP3A4.1, ziprasidone 0.1–25 μM
# [9] = other: CYP3A4.3, ziprasidone 0.1–25 μM
# [10] = other: CYP3A4.9, ziprasidone 0.1–25 μM
protein,measurement,setting,value
B1,Km,[1],2.87 ± 0.82 µM
same,kcat,[1],0.352 ± 0.0208 s⁻¹
B2,Km,[2],3.59 ± 0.12 µM
same,kcat,[2],0.271 ± 0.0252 s⁻¹
B3,Km,[3],2.30 ± 0.58 µM
same,kcat,[3],0.174 ± 0.0203 s⁻¹
B4,Km,[4],5.80 ± 3.19 µM
same,kcat,[4],0.431 ± 0.189 s⁻¹
B5,Km,[5],2.36 ± 0.42 µM
same,kcat,[5],0.577 ± 0.0767 s⁻¹
B6,Km,[6],1.15 ± 0.20 µM
same,kcat,[6],0.109 ± 0.0132 s⁻¹
B7,Km,[7],0.79 ± 0.17 µM
same,kcat,[7],0.0738 ± 0.005 s⁻¹
B8,Km,[8],5.04 ± 1.96 µM
same,kcat,[8],0.483 ± 0.076 s⁻¹
B9,Km,[9],2.46 ± 0.85 µM
same,kcat,[9],0.377 ± 0.111 s⁻¹
B10,Km,[10],1.16 ± 0.17 µM
same,kcat,[10],0.152 ± 0.0205 s⁻¹
